Measured values as given in PMC10726135.
This is one part of the list. At the low end of the ranking, values are background and their order means little. The protein was read in a cell extract, so binding may be indirect.

molecular target: T1, HNF4alpha2 (COS-7 nuclear extract) (UniProt P41235); test: protein-binding microarray; conditions: COS-7 nuclear extract on double-stranded Agilent 4x180k PBM; binding buffer, salt, pH and temperature not given; high values mean tight binding; double strand, one strand shown; sequences stand for … in …GCCTAGGGAGATTAGAGTATCGGTCGA
T1 sequence: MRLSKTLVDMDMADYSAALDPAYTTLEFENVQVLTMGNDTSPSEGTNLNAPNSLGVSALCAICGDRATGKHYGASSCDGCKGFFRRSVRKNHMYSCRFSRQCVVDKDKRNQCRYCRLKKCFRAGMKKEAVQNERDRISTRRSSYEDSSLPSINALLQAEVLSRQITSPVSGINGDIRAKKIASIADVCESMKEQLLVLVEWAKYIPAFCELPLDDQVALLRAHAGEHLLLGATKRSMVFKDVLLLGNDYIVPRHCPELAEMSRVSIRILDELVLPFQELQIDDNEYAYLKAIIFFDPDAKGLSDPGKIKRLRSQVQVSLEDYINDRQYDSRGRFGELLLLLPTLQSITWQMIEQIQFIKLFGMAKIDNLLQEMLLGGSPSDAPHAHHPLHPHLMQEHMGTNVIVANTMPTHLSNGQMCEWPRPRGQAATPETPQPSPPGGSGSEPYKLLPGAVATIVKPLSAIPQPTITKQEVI

Sequence | binding signal (log2 normalized intensity)
AACATAACAGCAACAACACAGATCATATCA | -1.01
GGACGTCCCCGGGCGGGATGGGGTCACGAG | 2.13
AGATTTGACCTACGGACCATGGATCGCCAA | 1.83
CTCAAGCCAGACTGGTTTTTCTTGGGTGTA | 1.68
CTGATAAAACAGCATGCGGTAAAGAAGCCA | -1.07
AGCCTAGTAAAAGGTAGATACTATAATTAG | -1.01
CTATCTTTGTAAGTACATTAATATACTGTG | 1.97
GCATGGCTCAGTCCAAGTCCAAAGGTCTGA | 5.39
TTAAAGCATATTTATTCAGGCCCACTGCAG | -1.1
CTTATCAGCAAGCATTAATCCCTGAGCCTG | -1.09
GCCAAAAGGTGCTACCACGAGAGTAGAGAG | -1.15
CAGACAGGCATGACAGAGTGTCCTGCCCCC | 4.92
CAAACACAAAAAGCGGACAAACCAGTCCCA | -1.19
CTTTGAGATTTGCATTCATGATCTTAGATA | 1.24
AACTTCGGGAATCTGACCTTTGGGACATTC | 5.61
TGCAACATTAAAACAACCCAGAGAATGCTA | -0.716
CATGTTAATTTAAATAACAAGGATAGCGTC | -0.878
TCCCTAAGATTTATCCCAAATGTTTGCACT | 1.71
TGAGTGTGTTTCTTGTTTCAGAGTAAATAC | 1.45
GAGATTTCAGCCGCTTTGAGGTCAATGGTA | 2.22
ATATTTGTCTTCCTATCTCCTTACTCTTTG | 0.837
TCCCTGGGTACAACTTTATCTAAGGGTTTC | 0.61
GACAAAATGCCCAGGATTCCTTTTTCACTG | -1.13
AAGATTAGCTCACAGGAAAGGAGACTAAAG | -1.2
ATGAGAACTTCTTCCAATGAAAGGTTAACC | 1.48

Sequence | binding signal (log2 normalized intensity)
ATCTGAATGTATGGGCTATTTATGACGGTG | 1.67
CCCGTGTCTCCCTACCTCTGCACAGCTCCA | -1.09
TTCCTGTAAATAATTAAGACCAAACTGCTG | -1.01
GACCCTCTGCCCCCTACACAGAGGAGCGAC | 3.79
GTGTTTCTTGTTTCAGAGTAAATACGAACC | 1.33
GGGATCCGGCCTTCCCGGGTGGACGTCCCC | 0.652
CTAGATGGCTGTGACTACTTCCGGACATGG | 0.55
TGGCACTGAAGAATGTCTAAATCTGAAGGA | -0.884
AAGTCTTAGTTTCCTTATCTGTAAAATGGA | 1.67
TTCCCGGCCTGGCCACTCCGTTTGCTATGG | -1.07
TGGCATGCAGCAGGGGAATGGAGACACACC | -0.628
CACAAGCAATGGCTGGGTCTAAGGGCAAGT | 0.463
TCTGTCTTCGGGCGGCGGCCTCTGGGAAAT | 0.0959
AGTAATGTGATTTAATTCTGAGTTCCAATA | 0.93
TGCCCCAGTCCTTCAGTCCTTCCCCCGCCA | 5.41
ATTGGACTCTCTCATTCTGATATGCACTGT | 1.63
CCAGTAGAGAAACAAATCTGCTTTCTACCC | -1.29
TGACTACCAGGTTCTGTACTTTGGAACCTG | 6.78
AGCCTGACCATCACCACTTCAAGCTTGGTA | -1.11
TATTAATGAGGCAAAGGTCAGGAGTTCCAT | 3.05
GAAGTGATCCTTATCAGTGTGAGCTACAAG | 0.52
TGAAAAAGGGTTGTGCAAACTTCAGCAGAA | -1.12
CCAGAATAGCCTCTGCAACTCAGAGACAGG | -1.17
TTCACCCCATTTTGTCCCTCCCTGCAGCTG | 4.07
AATAGCTGAACTATTTAAGGCCTTTGAAGT | -0.502

Sequence | binding signal (log2 normalized intensity)
ACCAGAGACCTTTGTTCACTTGTTTATCTG | 2.35
AGGTCCCCAAGAGCCTTATCACATTACAGG | -0.373
GGGCTAAACATCAAGACAGGTGAGAGAGCT | -0.956
GATAGGAGATAAGGGGGTCAGTTCAAAAGA | 0.291
CGCTTGTCTTACGGAAGAATGGAATTCCAG | 1.28
AACACACAAGGCCCACTCCTCCCTCAGGGA | -1.1
CTATGGGAAAACAGGCTCAGCAAAGTCAGG | -1.13
AATATCGCTTGTCTTACGGAAGAATGGAAT | 1.04
TTCAGGAATGCACCCTTTTGACCACACAGC | 1.43
TGTTGGGATTAAGGAGAAGGCTCCCAAGGT | -1.22
CATCTGCCACTCATAGAACTGTCGCAGAAA | -1.18
TTCTTTTTTTCTTTTTTTCCCCCTCACTGA | 4.25
TCTTGCCCTTTGGTCTGGAACACAGAGGGA | 1.91
ATGGGGCCAGATTGAGAAACACATTCTTAG | -0.841
GCCAGCAAGGACTTTGAAGGCCCCAATTGC | -0.606
AAGACCAAACTGCTGAAGATAAGACTTCCT | -0.997
GTTTGTCAAGCTCAATGCAACCAGTTGGTG | -1.16
ATCAAAGGTCACTTTACAGATAAAGAAACC | 2.34
ACAGAGTAAAGCCACTGCCTAGATAAAAGG | -1.17
CTTTGCCCAACCCTCTCCCACTCCCCTCCT | 4.96
AAGGGTTCAGGGCAGAAGAGGTTATCACAG | -0.326
ATGATATGGTCAGTGTTGATAAGAAAGCTG | 0.0354
AAGGCTGCTGCCTGAAAGGCCAAGCCAGTT | -1.04
GGAATCTGAACTTTTGGCTCCCTGGGGTTA | 1.68
CCTCCCGGAGGACCCGACCGGAGAGGGCGA | -1.29

Sequence | binding signal (log2 normalized intensity)
ATAAGGAGGGTAACAATGCTGATGGGGACC | -1.14
GGAAAAGTAACACAGTAAGAGACTTCACCA | -1.19
CCCTTCCTGCTTCCAGGCTTGTACCTTGAC | 2.69
CCCTAGTGACTCTAGGAACCTTTCTCCATA | -0.94
ATAGGCGAGGACGCAGTCCCGCGTGGCCTT | -1.09
TGTCAGCCCAAGATAACCTCCCCTCTGACC | 3.22
ATGTTAATGATTACTAGAGATGTCCTGAAA | -0.0943
CAAGAAAGACCCAAGGCGTATGAAGCTTTG | -1.15
GGGTGGACTTTGGCTTTTCCAAAGGATCCC | 4.12
AATAGATCTGGTCTTACTGATGGGCAAAGT | 1.75
TTAAAAGCCCAACACGGGCGAAAAAGACGC | -1.1
AACATTCTATTCTATCTGTATTCTGAAGCC | 0.518
ATGCAAAGCCCTGGCTGACCTTTAGCCTGG | 6.54
GGGCCCCTTCCTGGGGGAGTTTCCTGCCTG | -1.11
AATGAGCCTCCTGAAGATCCCCTGTTGTGC | 1.99
GGGACTTCGGTCTTTTTTCTGAAGACCTTC | 1.34
ATCTAATGCCCCAAATGACGCTTTAAGTAG | 0.934
CGCATTTCCAAAAGAAGAATGTGGCCATTT | 1.08
AAGTTCTTTTGTGTGTTTACATAACCTGCC | 1.69
GAAGACTTGGGGGAGGAGGGCAACCTTTGA | 4.3
AATAACCACAAGGGGGGAGCACCTCCCAAC | -1.09
TTTCAAAGGTCAACATACAGAGGCTCTGAG | 2.17
CAAGAACAAAAACTGTTTCTATGTGACCTT | 4.18
GGCAGGAGTCAACAGGCAGAAGAATGGATG | -1.07
GCTGCCGCAGATCCCCGCTCCCCTCCCCCA | 6.45

Sequence | binding signal (log2 normalized intensity)
CTCCACTATTGTCCTATGACCCTGCCAAAT | 2.34
TCTCAGCCTGGCTAAAACCCTGGCCACTCC | -1.16
GAGGGGGTTAAAGGTTATTTGCTCACCAGT | 3.66
TGGCAGAATCAAGGCAAGCCTTATCACTGT | -1.13
GAAGCGAGGCCTCATTGGCCAGTATCCGCC | -1.07
GCTGAGCAGCAATCAGCTCCTCAACCAAGG | -1.45
TCAGCACACCCCACGGAGCACATTCCATGC | 1.55
CTTCTCTGTTAACCCTTTGCAGCCCCTGTC | 3.49
GATGTAGCTGCAAAGATAAGGATGCCTTTT | 0.61
TATTCAGGAAGTCGCTTGCCAGTATGCCAC | -1.03
GAGAAACAGGGGCTTAAACCTTTAATGATG | -0.75
CAAACATACTTAGGATTTTTGTGCCTCTTT | 1.05
AATCAGTCTGATTGGTTGCAGAAGGCAGCC | -0.054
GTCTTTAGAGTAACCATTCTTTCTGAGAAA | -0.725
CCTCAAAGGTTAGGGGGATTCTGGCTAAAC | -0.628
CTCTTTTGGATTTTTCCATATCTGTGTGCC | 1.58
TATCATTAGATTCCATGCAGCAGCATCCAG | -0.708
GATAATATTTTTACCAGGTCAGAGGACTTC | 2.03
CAAAGCAGGAGATGTGTGAAGGACACAGAA | -0.255
TGGCACTTTGGACTTGAGAAGACATAGTTT | 2.25
TGCTTTCAGGTGTGAACCCAGGCAAAGTCC | 3.34
AAGGGGTCAGACCAGACAGCACCTCTCTGA | -1.2
CTTACAGTCTTGGATCGGGATGATCAATGT | 1.74
TATCAGAAGAATCTGTATCAGCCTGTGACA | 1.15
AAAGAAGAAGATGATATGGTCAGTGTTGAT | 1.52

Sequence | binding signal (log2 normalized intensity)
ATCTCTAAGCTACTGAAAATGACCTTTGTT | 6.11
TCAAAGGTCAGAAAAAGCTGACGCCCCACC | 3.28
TCCAGCCCCAGGCTGAGCGTGAACACCGGC | -1.06
AAATAGAGAGCAGACAGGGGCTCAGCTGTC | -1.18
TCAGAAAGCAGAAGTTCTAGGAGCCTGGAC | -1.16
TAAATACCATTAGGGGGCAATTTCCCTGGT | 0.585
TAAGCATAACTGGTTCAACCTGTTTCCACT | -1.11
GACTTAGCACAGGAAAGGGCTTTGGGGACT | -0.873
TCCAAAGTATTTTCTGTCTAGGTGCCAGAA | 0.423
GCAGCGCGGGGCTCAAAGGCGGCCCGGGTG | -1.2
GGAGAGATAAGAAAAACTGAGCTTTAGATA | -1.16
CACAGAAGCATGGATGAATGAGTTTCCAGA | -0.499
GCTTGTCAGACAAGTTGCAGGGATGGACTT | 3.12
CCCTCCCCCACCCGCGGTCCGTCCCTCCTG | 5.36
CCTGGACTCTAGAGCCAGACTAGTATTGAG | 0.877
CAGGATGGGCTCCTGCCTTGGAGAAGTGAA | -1.14
GCTATTTGCATCAGCAGAGGACAGAAGAAG | -1.18
TACACAAGCAATAGGGTTCGGTGCAATAAC | -1.07
GGAAGTACTGCCCTTAACTCCCGGCACTCT | -1.11
GTTGTTCCTTTTCTTTCACATACAAAATTT | 0.634
